Test results taken from the supplement of paper PMC10126150.
Sequences with one replicate were seen in a single cluster, so their values are uncertain.

Tested on: ATP
Assay: switch fluorescence ratio, 500 uM ATP over buffer (Cy3 cluster intensity, sum of 5 cycles each) (fold (ratio)); higher = stronger signal-on switching upon ATP binding; sequences stand for … in TCGTCGGCAGCGTCAGATGTGTATAAGAGACAGTTTTTTTTTTTTTTTTTTTTTTTTT…TC
Conditions: aptamer strand: ATP DNA aptamer (quencher-CACCTGGGGGAGTATTGCGGAGGAAGG + anchor), 100 nM annealed; ATP concentration: 500 uM; one replicate
In short: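 Exposure to 500 uM ATP lasted 15 min at 22 °C before imaging, and a selection-buffer image was taken beforehand, for Cy3-labelled switching-strand clusters on a modified Illumina MiSeq flow-cell annealed to 100 nM quencher-labelled ATP aptamer. Five buffer/ATP cycles were run with NaOH stripping and re-annealing between them. The fluorescence ratio per cluster is summed target-cycle over summed buffer-cycle Cy3 intensity, averaged per switch-domain sequence. Clusters outside 100-1000 RFU were excluded.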

Q: Which switch fluorescence ratio does the source give for GGGACCTCGC here?
A: 1.04

Q: How did the switch fluorescence ratio turn out when GGGACCTTAC was run?
A: 2.48

Q: How did the switch fluorescence ratio turn out when GGGACGCTGG was run?
A: 0.998

Q: For GGGACTACAG, which switch fluorescence ratio is on record?
A: 0.904

Q: For GGGACTTTCA, which switch fluorescence ratio is on record?
A: 1.01

Q: With GGGAGAGCAA as the sequence, how does the switch fluorescence ratio read?
A: 1.7

Q: How did the switch fluorescence ratio turn out when GGGAGCAAGA was run?
A: 0.98

Q: How did the switch fluorescence ratio turn out when GGGAGCAGCG was run?
A: 1.01

Q: For GGGAGCGCAG, which switch fluorescence ratio is on record?
A: 0.939

Q: How did the switch fluorescence ratio turn out when GGGAGGCAAC was run?
A: 1

Q: GGGAGGCCAA was tested. Which switch fluorescence ratio did it give?
A: 0.949

Q: How did the switch fluorescence ratio turn out when GGGAGGCCCT was run?
A: 1.07

Q: Which switch fluorescence ratio does the source give for GGGAGGGAC here?
A: 0.983

Q: GGGATACGG was tested. Which switch fluorescence ratio did it give?
A: 1.11

Q: For GGGATACTCA, which switch fluorescence ratio is on record?
A: 1.03

Q: Which switch fluorescence ratio does the source give for GGGATAGGAC here?
A: 1.02

Q: For GGGATATACT, which switch fluorescence ratio is on record?
A: 1.17

Q: How did the switch fluorescence ratio turn out when GGGATATATC was run?
A: 1.02

Q: Which switch fluorescence ratio does the source give for GGGATCACGG here?
A: 1.01

Q: For GGGATCACTT, which switch fluorescence ratio is on record?
A: 1.05

Q: Which switch fluorescence ratio does the source give for GGGATGACAA here?
A: 0.99

Q: How did the switch fluorescence ratio turn out when GGGATGACAC was run?
A: 0.987

Q: How did the switch fluorescence ratio turn out when GGGATGAGCC was run?
A: 1.06

Q: With GGGATGATCT as the sequence, how does the switch fluorescence ratio read?
A: 1.05

Q: GGGATGTTGA was tested. Which switch fluorescence ratio did it give?
A: 1.05

Q: With GGGATTTAAG as the sequence, how does the switch fluorescence ratio read?
A: 1.02

Q: For GGGATTTCGC, which switch fluorescence ratio is on record?
A: 0.988

Q: Which switch fluorescence ratio does the source give for GGGCAAAACC here?
A: 1.06

Q: GGGCAATGCA was tested. Which switch fluorescence ratio did it give?
A: 1.12

Q: How did the switch fluorescence ratio turn out when GGGCAATGGT was run?
A: 1.22

Q: GGGCAATGTT was tested. Which switch fluorescence ratio did it give?
A: 1.01

Q: GGGCACAAGG was tested. Which switch fluorescence ratio did it give?
A: 0.987

Q: For GGGCACAATA, which switch fluorescence ratio is on record?
A: 1.02

Q: GGGCACGCGC was tested. Which switch fluorescence ratio did it give?
A: 1.04

Q: GGGCACGCTT was tested. Which switch fluorescence ratio did it give?
A: 1.15

Q: For GGGCACGGAG, which switch fluorescence ratio is on record?
A: 1.01

Q: How did the switch fluorescence ratio turn out when GGGCACGGGA was run?
A: 0.989

Q: For GGGCACGGGG, which switch fluorescence ratio is on record?
A: 1.03

Q: GGGCAGGCTC was tested. Which switch fluorescence ratio did it give?
A: 1.02

Q: How did the switch fluorescence ratio turn out when GGGCAGGGA was run?
A: 0.997

Q: With GGGCAGTCTT as the sequence, how does the switch fluorescence ratio read?
A: 1.03

Q: Which switch fluorescence ratio does the source give for GGGCATGTGT here?
A: 0.954

Q: With GGGCATTTGT as the sequence, how does the switch fluorescence ratio read?
A: 0.986

Q: How did the switch fluorescence ratio turn out when GGGCCAGG was run?
A: 1.07

Q: Which switch fluorescence ratio does the source give for GGGCCCCT here?
A: 1.42

Q: With GGGCCCTGAT as the sequence, how does the switch fluorescence ratio read?
A: 0.996

Q: With GGGCCGAGTG as the sequence, how does the switch fluorescence ratio read?
A: 0.947

Q: GGGCCGGGCT was tested. Which switch fluorescence ratio did it give?
A: 1.19

Q: How did the switch fluorescence ratio turn out when GGGCCTGAAC was run?
A: 1.16

Q: For GGGCCTGTCC, which switch fluorescence ratio is on record?
A: 1.03

Q: For GGGCCTTAGT, which switch fluorescence ratio is on record?
A: 1.01

Q: How did the switch fluorescence ratio turn out when GGGCGAAAAG was run?
A: 1.06

Q: With GGGCGAAAGC as the sequence, how does the switch fluorescence ratio read?
A: 1.03

Q: GGGCGAGAGT was tested. Which switch fluorescence ratio did it give?
A: 0.998

Q: Which switch fluorescence ratio does the source give for GGGCGAGATA here?
A: 1

Q: For GGGCGCGCG, which switch fluorescence ratio is on record?
A: 1.02

Q: How did the switch fluorescence ratio turn out when GGGCGCGCGT was run?
A: 0.961

Q: How did the switch fluorescence ratio turn out when GGGCGCGTCA was run?
A: 0.976

Q: For GGGCGGAGCA, which switch fluorescence ratio is on record?
A: 1.03

Q: For GGGCGGATAG, which switch fluorescence ratio is on record?
A: 0.989

Q: With GGGCGTATGA as the sequence, how does the switch fluorescence ratio read?
A: 1.09

Q: How did the switch fluorescence ratio turn out when GGGCTAAGGT was run?
A: 1.03

Q: Which switch fluorescence ratio does the source give for GGGCTAGCTA here?
A: 0.993

Q: For GGGCTATCAG, which switch fluorescence ratio is on record?
A: 1

Q: For GGGCTCGACC, which switch fluorescence ratio is on record?
A: 1.1

Q: GGGCTCGAGT was tested. Which switch fluorescence ratio did it give?
A: 1

Q: Which switch fluorescence ratio does the source give for GGGCTCTGT here?
A: 1.01

Q: For GGGCTGATTT, which switch fluorescence ratio is on record?
A: 1

Q: GGGCTGGCAT was tested. Which switch fluorescence ratio did it give?
A: 0.954

Q: With GGGCTGGTAA as the sequence, how does the switch fluorescence ratio read?
A: 1.04

Q: Which switch fluorescence ratio does the source give for GGGCTTCAGT here?
A: 0.974

Q: With GGGCTTGGC as the sequence, how does the switch fluorescence ratio read?
A: 0.978

Q: GGGGAACCGG was tested. Which switch fluorescence ratio did it give?
A: 1.04

Q: GGGGAAGTA was tested. Which switch fluorescence ratio did it give?
A: 1.01

Q: With GGGGAATATT as the sequence, how does the switch fluorescence ratio read?
A: 0.981

Q: With GGGGAATCG as the sequence, how does the switch fluorescence ratio read?
A: 1.01

Q: For GGGGACAG, which switch fluorescence ratio is on record?
A: 0.994

Q: How did the switch fluorescence ratio turn out when GGGGACCCCG was run?
A: 1.03

Q: With GGGGACGCA as the sequence, how does the switch fluorescence ratio read?
A: 1.1

Q: How did the switch fluorescence ratio turn out when GGGGAGACTT was run?
A: 1.02

Q: Which switch fluorescence ratio does the source give for GGGGAGCATA here?
A: 1.11

Q: For GGGGAGCCT, which switch fluorescence ratio is on record?
A: 0.999

Q: GGGGAGG was tested. Which switch fluorescence ratio did it give?
A: 0.948

Q: With GGGGAGGATC as the sequence, how does the switch fluorescence ratio read?
A: 0.987

Q: GGGGAGGCAA was tested. Which switch fluorescence ratio did it give?
A: 1.05
